The supplement of paper PMC8728848
The list shows a part of the results.

Assays:
Assay in all cases: glycan array binding signal (z-score within array); higher = stronger binding
Conditions in all cases: glycan notation: IUPAC condensed, linker removed
[1] = target: Gal(b1-3)GlcNAc
How it was run: (§1)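 Negative Z-scores can be read as non-binding. The Z-score is calculated within each array and then averaged across arrays of one protein sequence at different concentrations or buffers and across linkers. Arrays, 3228 in all, were curated from the Consortium for Functional Glycomics database and kept only where the protein sequence was available.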

[2] = target: Gal(b1-3)GlcNAc(a1-3)Gal(b1-4)GlcNAc
How it was run: as §1

[3] = target: Gal(b1-3)GlcNAc(a1-6)Gal(b1-4)GlcNAc
How it was run: as §1

[4] = target: Gal(b1-3)GlcNAc(b1-2)Man(a1-3)[Gal(b1-3)GlcNAc(b1-2)Man(a1-6)]Man(b1-4)GlcNAc(b1-4)GlcNAc
How it was run: as §1

[5] = target: Gal(b1-3)GlcNAc(b1-2)Man(a1-3)[Gal(b1-3)GlcNAc(b1-2)Man(a1-6)]Man(b1-4)GlcNAc(b1-4)[Fuc(a1-6)]GlcNAc
How it was run: as §1

[6] = target: Gal(b1-3)GlcNAc(b1-2)Man(a1-3)[GlcNAc(b1-4)][Gal(b1-3)GlcNAc(b1-2)Man(a1-6)]Man(b1-4)GlcNAc(b1-4)GlcNAc
How it was run: as §1

[7] = target: Gal(b1-3)GlcNAc(b1-2)[Gal(b1-3)GlcNAc(b1-6)]Man(a1-6)[Gal(b1-3)GlcNAc(b1-2)Man(a1-3)]Man(b1-4)GlcNAc(b1-4)GlcNAc
How it was run: as §1

[8] = target: Gal(b1-3)GlcNAc(b1-3)Gal(b1-3)GlcNAc
How it was run: as §1

[9] = target: Gal(b1-3)GlcNAc(b1-3)Gal(b1-4)Glc
How it was run: as §1

[10] = target: Gal(b1-3)GlcNAc(b1-3)Gal(b1-4)GlcNAc
How it was run: as §1

[11] = target: Gal(b1-3)GlcNAc(b1-3)Gal(b1-4)GlcNAc(b1-6)[Gal(b1-3)GlcNAc(b1-3)]Gal(b1-4)Glc
How it was run: as §1

[12] = target: Gal(b1-3)GlcNAc(b1-3)Gal(b1-4)[Fuc(a1-3)]GlcNAc(b1-6)[Gal(b1-3)GlcNAc(b1-3)]Gal(b1-4)Glc
How it was run: as §1

[13] = target: Gal(b1-3)GlcNAc(b1-3)GalNAc
How it was run: as §1

[14] = target: Gal(b1-3)GlcNAc(b1-6)Gal(b1-4)GlcNAc
How it was run: as §1

[15] = target: Gal(b1-3)GlcNAc(b1-6)GalNAc
How it was run: as §1

[16] = target: Gal(b1-3)GlcNAc6S
How it was run: as §1

[17] = target: Gal(b1-3)[Fuc(a1-4)]GlcNAc
How it was run: as §1

[18] = target: Gal(b1-3)[Fuc(a1-4)]GlcNAc(b1-2)Man(a1-3)[Gal(b1-3)[Fuc(a1-4)]GlcNAc(b1-2)Man(a1-6)]Man(b1-4)GlcNAc(b1-4)[Fuc(a1-6)]GlcNAc
How it was run: as §1

[19] = target: Gal(b1-3)[Fuc(a1-4)]GlcNAc(b1-3)Gal(b1-3)[Fuc(a1-4)]GlcNAc
How it was run: as §1

[20] = target: Gal(b1-3)[Fuc(a1-4)]GlcNAc(b1-3)Gal(b1-4)GlcNAc
How it was run: as §1

[21] = target: Gal(b1-3)[Fuc(a1-4)]GlcNAc(b1-3)Gal(b1-4)[Fuc(a1-3)]GlcNAc
How it was run: as §1

[22] = target: Gal(b1-3)[Fuc(a1-4)]GlcNAc(b1-6)GalNAc
How it was run: as §1

[23] = target: Gal(b1-3)[GlcNAc(b1-6)]GalNAc
How it was run: as §1

[24] = target: Gal(b1-3)[Neu5Ac(a2-6)]GalNAc
How it was run: as §1

[25] = target: Gal(b1-3)[Neu5Ac(a2-6)]GlcNAc(b1-6)Gal(b1-4)Glc
How it was run: as §1

[26] = target: Gal(b1-3)[Neu5Ac(b2-6)]GalNAc
How it was run: as §1

[27] = target: Gal(b1-4)Gal
How it was run: as §1

[28] = target: Gal(b1-4)GalNAc(a1-3)[Fuc(a1-2)]Gal(b1-4)GlcNAc
How it was run: as §1

[29] = target: Gal(b1-4)GalNAc(b1-3)[Fuc(a1-2)]Gal(b1-4)GlcNAc
How it was run: as §1

[30] = target: Gal(b1-4)Glc
How it was run: as §1

[31] = target: Gal(b1-4)Glc6S
How it was run: as §1

[32] = target: Gal(b1-4)GlcNAc
How it was run: as §1

[33] = target: Gal(b1-4)GlcNAc(a1-6)Gal(b1-4)GlcNAc
How it was run: as §1

[34] = target: Gal(b1-4)GlcNAc(b1-2)Man
How it was run: as §1

[35] = target: Gal(b1-4)GlcNAc(b1-2)Man(a1-3)Man(b1-4)GlcNAc(b1-4)GlcNAc
How it was run: as §1

[36] = target: Gal(b1-4)GlcNAc(b1-2)Man(a1-3)[Gal(b1-4)GlcNAc(b1-2)Man(a1-6)]Man(b1-4)GlcNAc(b1-4)GlcNAc
How it was run: as §1

[37] = target: Gal(b1-4)GlcNAc(b1-2)Man(a1-3)[Gal(b1-4)GlcNAc(b1-2)Man(a1-6)]Man(b1-4)GlcNAc(b1-4)[Fuc(a1-6)]GlcNAc
How it was run: as §1

[38] = target: Gal(b1-4)GlcNAc(b1-2)Man(a1-3)[Gal(b1-4)GlcNAc(b1-2)][GlcNAc(b1-4)]Man(b1-4)GlcNAc(b1-4)GlcNAc
How it was run: as §1

[39] = target: Gal(b1-4)GlcNAc(b1-2)Man(a1-3)[GlcNAc(b1-2)Man(a1-6)]Man(b1-4)GlcNAc(b1-4)GlcNAc
How it was run: as §1

[40] = target: Gal(b1-4)GlcNAc(b1-2)Man(a1-3)[Man(a1-6)]Man(b1-4)GlcNAc(b1-4)GlcNAc
How it was run: as §1

[41] = target: Gal(b1-4)GlcNAc(b1-2)Man(a1-6)Man(b1-4)GlcNAc(b1-4)GlcNAc
How it was run: as §1

[42] = target: Gal(b1-4)GlcNAc(b1-2)Man(a1-6)[GlcNAc(b1-2)Man(a1-3)]Man(b1-4)GlcNAc(b1-4)GlcNAc
How it was run: as §1

[43] = target: Gal(b1-4)GlcNAc(b1-2)Man(a1-6)[Man(a1-3)]Man(b1-4)GlcNAc(b1-4)GlcNAc
How it was run: as §1

[44] = target: Gal(b1-4)GlcNAc(b1-2)[Gal(b1-4)GlcNAc(b1-4)]Man(a1-3)[Gal(b1-4)GlcNAc(b1-2)Man(a1-6)]Man(b1-4)GlcNAc(b1-4)GlcNAc
How it was run: as §1

[45] = target: Gal(b1-4)GlcNAc(b1-2)[Gal(b1-4)GlcNAc(b1-4)]Man(a1-3)[Gal(b1-4)GlcNAc(b1-2)[Gal(b1-4)GlcNAc(b1-6)]Man(a1-6)]Man(b1-4)GlcNAc(b1-4)GlcNAc
How it was run: as §1

B1: Morniga (Morus nigra) (protein)
chain: MAGTSTNTQTTGTSQTVEVGLWGGPGGNAWDDGSYTGIREINLSHGDAIGAFSVIYDLNGQPFTGPTHPGNEPSFKTVKITLDFPNEFLVSVSGYTGVLPRLATGKDVIRSLTFKTNKKTYGPYGKEEGTPFSLPIENGLIVGFKGRSGFVVDAIGVHLS
For B1, the “glycan array binding signal (z-score)” value [1] was -0.336, the “glycan array binding signal (z-score)” value [2] was -0.337 and the “glycan array binding signal (z-score)” value [3] was -0.339. The “glycan array binding signal (z-score)” value [4] was 3.06, the “glycan array binding signal (z-score)” value [5] was 1.26 and the “glycan array binding signal (z-score)” value [6] was 1.26. For the same binder, the “glycan array binding signal (z-score)” value [7] was 1.79, the “glycan array binding signal (z-score)” value [8] was -0.34 and the “glycan array binding signal (z-score)” value [9] was -0.336. The “glycan array binding signal (z-score)” value [10] was -0.347, the “glycan array binding signal (z-score)” value [11] was -0.336 and the “glycan array binding signal (z-score)” value [12] was -0.335. For the same binder, the “glycan array binding signal (z-score)” value [13] was -0.318, the “glycan array binding signal (z-score)” value [14] was -0.334 and the “glycan array binding signal (z-score)” value [15] was -0.334. The “glycan array binding signal (z-score)” value [16] was -0.302, the “glycan array binding signal (z-score)” value [17] was -0.329 and the “glycan array binding signal (z-score)” value [18] was 0.156. The “glycan array binding signal (z-score)” value [19] was -0.331, the “glycan array binding signal (z-score)” value [20] was -0.343 and the “glycan array binding signal (z-score)” value [21] was -0.328. The “glycan array binding signal (z-score)” value [22] was -0.31, the “glycan array binding signal (z-score)” value [23] was -0.339 and the “glycan array binding signal (z-score)” value [24] was -0.33. The “glycan array binding signal (z-score)” value [25] was -0.33, the “glycan array binding signal (z-score)” value [26] was -0.335 and the “glycan array binding signal (z-score)” value [27] was -0.318. For the same binder, the “glycan array binding signal (z-score)” value [28] was -0.341, the “glycan array binding signal (z-score)” value [29] was -0.338 and the “glycan array binding signal (z-score)” value [30] was -0.342. For the same binder, the “glycan array binding signal (z-score)” value [31] was -0.338, the “glycan array binding signal (z-score)” value [32] was -0.336 and the “glycan array binding signal (z-score)” value [33] was -0.338. The “glycan array binding signal (z-score)” value [34] was -0.333, the “glycan array binding signal (z-score)” value [35] was 4.3 and the “glycan array binding signal (z-score)” value [36] was 3.33. The “glycan array binding signal (z-score)” value [37] was 0.968, the “glycan array binding signal (z-score)” value [38] was 1.41 and the “glycan array binding signal (z-score)” value [39] was 2.78. For the same binder, the “glycan array binding signal (z-score)” value [40] was 4.49, the “glycan array binding signal (z-score)” value [41] was -0.335 and the “glycan array binding signal (z-score)” value [42] was 2.39. For the same binder, the “glycan array binding signal (z-score)” value [43] was 4.24, the “glycan array binding signal (z-score)” value [44] was 0.239 and the “glycan array binding signal (z-score)” value [45] was 0.204.
